US20250049941A1, “ANTI-CD39 Antibody-Drug Conjugate And Use Thereof” (priority 2021, published 2025)

Tests used:
Mino cells = assay: In-vivo anti-tumor activity of ADCs in the Mino mantle cell lymphoma model; conditions: Mino cells in CB17/SCID mice; 10 mg/kg, intraperitoneal injection twice a week for 6 times from Day 0; FIG. 2
Source text: Mino is a human mantle cell lymphoma cell line which naturally expresses human CD39 on its cell surface, and the cells are inoculated to CB17/SCID mice to establish a mantle cell lymphoma model for detecting the in-vivo anti-tumor effects of anti-CD39 antibody-drug conjugates.
5×10^6 Mino cells (ATCC) (plus 50% Matrigel, Thermo Fisher) were inoculated into the right ventral side of CB17/SCID mice (Shanghai Slac Laboratory Animal Co., Ltd., aged 6-8 weeks). When the tumor volume reached the average value of about 90 mm^3, the mice were divided into groups, and the day of grouping was recorded as Day 0. The blank control group and F314 group were subjected to administration starting on Day 0, with 5 animals in each group, wherein the administration was performed by intraperitoneal injection twice a week for 6 times consecutively. The dose for the F314 group was 10 mg/kg, and the blank control group was injected with an equal volume of PBS. […] The length and width of the tumor were measured with a vernier caliper, and the tumor volume was calculated using the formula TV=(length×width^2)/2. […]

DB cells = assay: In-vitro killing activity of ADCs against positive tumor cells (CCK-8 cell viability); assay type: cell-based, human; conditions: 60-96 h, FIG. 1
Protocol: DB is a human follicular lymphoma cell line which naturally expresses human CD39 on its cell surface, and is used for detecting the in-vitro killing activity effect of anti-CD39 antibody-drug conjugates against positive tumor cells. Each ADC or antibody sample to be tested was diluted to an initial concentration of 6.67 μg/mL with a 1640+10% FBS (Gibco) complete medium, then diluted in a 3-fold gradient to give a total of 5 concentration points, and added into a 96-well cell plate at 100 μL/well, and zero-concentration control wells (i.e., containing complete medium without the ADC or antibody sample to be tested) were set. DB cells (Nanjing Cobioer Biosciences Co., Ltd.) in logarithmic growth phase were collected, diluted to (0.8-1.2)×10^5 cells/mL with a 1640+10% FBS (Gibco) complete medium, and then added into the above 96-well plate at 100 μL/well. The 96-well plate was placed in a CO2 incubator at 37° C. and left to stand for 60-96 h. CCK-8 (Dojindo Laboratories, CK04) was then added at 20 μL/well, and the mixture was incubated for 4-6 h of color development. The OD450 nm readings were then detected by using a multi-mode microplate reader (Molecular Devices). Calculation formula for cell viability (%): ODsample well/ODcontrol well×100%.

[1] = test system: MOLP-8 cells expressing CD39; assay: Affinity activity of ADCs for positive tumor cells (flow cytometry); assay type: binding, human; conditions: 4 °C, FIG. 4
Protocol: MOLP-8 is a human multiple myeloma cell line which naturally expresses human CD39 on its cell surface, and is used for detecting the affinity activity and endocytosis activity of anti-CD39 antibody-drug conjugates on positive tumor cells.
Each ADC or antibody sample to be tested was diluted to an initial concentration of 20 μg/mL with 1×PBS, then diluted in a 3-fold gradient to give a total of 7 concentration points, and added into a 96-well V-bottom plate at 50 μL/well, and meanwhile, zero-concentration control wells (i.e., containing complete medium without the ADC or antibody sample to be tested) were set. MOLP-8 cells (DSMZ) were collected, resuspended to 8.0×10^6 cells/mL with 1×PBS, and then added into the above 96-well plate at 50 μL/well. The mixture was well mixed and then incubated at 4° C. for 0.5 h. Washing: 1×PBS was added at 100 μL/well, and the mixture was centrifuged at 2000 rpm for 7 min, followed by removal of the supernatant; 1×PBS was further added at 200 μL/well, and the mixture was well mixed by pipetting and then centrifuged at 2000 rpm for 7 min, followed by removal of the supernatant. […] 1×PBS was added at 200 μL/well to resuspend the cells, and the resuspended cells were analyzed on a flow cytometer.

SKOV-3 cells = assay: In-vitro killing activity of ADCs against negative tumor cells (CCK-8 cell viability); assay type: cell-based, human; conditions: 60-96 h, FIG. 3
Source text: Provided are certain methods for preparing antibody-cytotoxic drug conjugates or pharmaceutically acceptable salts or solvates thereof. The ADC of general formula I can be prepared by several routes using organic chemical reactions, conditions and reagents known to those skilled in the art, including: (1) reacting a nucleophilic group of an antibody with a bivalent linker reagent via a covalent bond to form Ab-L, and then reacting Ab-L with a drug module D; and (2) reacting the nucleophilic group of the drug module with the bivalent linker reagent via a covalent bond to form D-L, and then reacting D-L with the nucleophilic group of the antibody.
Each ADC or antibody sample to be tested was diluted to an initial concentration of 6.67 μg/mL with McCoy's 5A+10% FBS complete medium, then diluted in a 3-fold gradient to give a total of 5 concentration points, and added into a 96-well cell plate at 100 μL/well, and zero-concentration control wells (i.e., containing complete medium without the ADC or antibody sample to be tested) were set. SKOV-3 cells (ATCC) in logarithmic growth phase were collected, diluted to (0.8-1.2)×10^5 cells/mL with McCoy's 5A+10% FBS complete medium, and then added into the above 96-well plate at 100 μL/well. […] The OD450 nm readings were then detected by using a multi-mode microplate reader. […]

B1: F314 (antibody)
heavy: QVQLVQSGAEVKKPGASVKVSCKASGYTFTNYWMYWVRQRPGRGLEWIGRIAPSSGATKYNEKFKNRATLTVDTSISTAYMELSRLRSDDTAVYYCARSGIYYDYDWFFDVWGQGTTVTVSSASTKGPSVFPLAPCSRSTSESTAALGCLVKDYFPEPVTVSWNSGALTSGVHTFPAVLQSSGLYSLSSVVTVPSSSLGTKTYTCNVDHKPSNTKVDKRV[omitted - human IgG4 Fc with S228P (EU numbers)]
light: DIQMTQSPSSLSASVGDRVTITCKASQDINKYIGWYQQKPGKAPKLLIHYTSTLQPGVPSRFSGSGSGRDYTFTISSLQPEDIATYYCLQYHALLFTFGQGTKLEIKRTVAAPSVFIFPPSDEQLKSGTASVVCLLNNFYPREAKVQWKVDNALQSGNSQESVTEQDSKDSTYSLSSTLTLSKADYEKHKVYACEVTHQGLSSPVTKSFNRGEC
- anti-tumor effect (tumor volume) (Mino cells): did not exhibit anti-tumor effect
- in-vitro killing effect against DB tumor cells positive to antigen expression (DB cells): no direct killing effect
- affinity for MOLP-8 cells expressing CD39 [1]: exhibited an affinity
- in-vitro killing effect against SKOV-3 tumor cells that do not express human CD39 (SKOV-3 cells): no killing effect
